Where a name gives a salt, the structure may show the parent alone. ± gives the standard deviation of the averaged measurements. Over roughly 3,200 compounds, “nuclei count (viability) relative to DMSO” has its median near 99; the lowest 2% begin near 16. Some of the results follow.

The subject of the experiment is U2OS. The experiment can be described thus: nuclei count (viability) relative to DMSO (% of DMSO); higher = more viable cells. As to conditions: 10 µM; 24 h. The procedure:
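Primary image-based screen in U2OS cells: compounds at 10 uM for 24 h, then a 1 h o-propargyl-puromycin (OPP) pulse, click labelling, and high-throughput microscopy. Mean cytoplasmic OPP intensity and nuclei count were normalised to DMSO wells within each plate (DMSO = 100) and averaged over triplicate plates.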
`COC(=O)N[C@H](C(=O)N[C@@H](Cc1ccccc1)[C@@H](O)CN(Cc1ccc(-c2ccccn2)cc1)NC(=O)[C@@H](NC(=O)OC)C(C)(C)C)C(C)(C)C` [Atazanavir sulfate] registered a nuclei count of 100.

Consider `CCC[S+]([O-])c1ccc2[nH]c(NC(=O)OC)nc2c1` (stereo not drawn) [Albendazole Oxide (Ricobendazole)], for which the nuclei count was 97.9.

Compound `NC(=O)OCC(COC(N)=O)c1ccccc1` [Felbamate] displayed a nuclei count of 96.1.

`Cc1ccnc(NS(=O)(=O)c2ccc(N)cc2)n1` [Sulfamerazine] gave a nuclei count of 104.

Turning to `C[C@H]1NC(=O)NC1=O` [Methylhydantoin-5-(D)], the nuclei count worked out at 107.

For `N=C(N)NCc1cccc(I)c1` [Iobenguane sulfate], the nuclei count is 106.

For `O=C1CCN(c2ccccc2)N1` [Phenidone], the nuclei count was 107.

The compound `O=c1ccn([C@@H]2O[C@H](CO)[C@@H](O)[C@H]2O)c(=O)[nH]1` [Uridine] returned a nuclei count of 99.3.

The compound `COc1ccc2[nH]c(-c3ccccc3)c(CCNC(C)=O)c2c1` [2-Phenylmelatonin] gave a nuclei count of 84.5.

For `O=C(NCCCN1CCCCCC1)C(c1ccccc1)C1CCCCC1` (stereo not drawn), the nuclei count is 103.

`CC(C)n1c(/C=C/C(O)CC(O)CC(=O)O)c(-c2ccc(F)cc2)c2ccccc21` (stereo not drawn) [Fluvastatin sodium salt] returned a nuclei count of 105.

The compound `CC(C)n1c(/C=C/C(O)CC(O)CC(=O)O)c(-c2ccc(F)cc2)c2ccccc21` (stereo not drawn) [Fluvastatin sodium (Lescol)] displayed a nuclei count of 95.2.

`N[C@H](C(=O)O)[C@@H]1CC(Cl)=NO1` [Acivicin]: the nuclei count was found to be 65.9.

As to `CC(=O)Oc1ccccc1C(=O)Oc1ccccc1C(=O)O` [Acetylsalicylsalicylic acid], the nuclei count amounted to 97.1.

In turn, `CNC(=O)c1c(I)c(C(=O)NCC(=O)Nc2c(I)c(C(=O)O)c(I)c(C(=O)NCCO)c2I)c(I)c(N(C)C(C)=O)c1I` [Ioxaglic acid] gave a nuclei count of 95.6.

The compound `C[C@H](Cn1cnc2c(N)ncnc21)OCP(=O)(O)O` [Tenofovir (Viread)] came in with a nuclei count of 108.

Turning to `CCCCNc1cc(C(=O)O)cc(S(N)(=O)=O)c1Oc1ccccc1` [Bumetanide], the nuclei count was 100.

With `CC[C@H](C)C(=O)O[C@H]1C[C@@H](C)C=C2C=C[C@H](C)[C@H](CC[C@@H]3C[C@@H](O)CC(=O)O3)[C@H]21` [Lovastatin], the nuclei count is 94.8 ± 2.2.

`CC[C@H](C)C(=O)O[C@H]1C[C@@H](C)C=C2C=C[C@H](C)[C@H](CC[C@@H]3C[C@@H](O)CC(=O)O3)[C@H]21` [Lovastatin (Mevacor)] had a nuclei count of 100.

Take `Clc1ccc(C(Cn2ccnc2)OCc2ccc(Sc3ccccc3)cc2)c(Cl)c1` (stereo not drawn) [Fenticonazole nitrate]: the nuclei count worked out at 86.1.

With `Cc1c(C)c2c(c(C)c1O)CCC(C)(C(=O)O)O2` (stereo not drawn) [Trolox], the nuclei count came out at 105.5 ± 0.69.

As to `CC1(c2ccccc2)OC(C(=O)O)=CC1=O` (stereo not drawn) [Acifran], the nuclei count was 91.8.

As for `Cc1cc(=O)n(C)c2cc(N3C(=O)CC[C@H](NS(=O)(=O)CC(C)C)[C@H]3c3ccc(Cl)cc3)ccc12`, the nuclei count was 104.

Take `CCN(CC)CCOC(=O)c1ccc(N)cc1` [Procaine hydrochloride]: the nuclei count came out at 95.3.

In turn, `O=C1CCC[C@@H]2[C@H]3CCC[N+]4([O-])CCC[C@@H](CN12)[C@@H]34` (stereo partly drawn) [Oxymatrine (Matrine N-oxide)] had a nuclei count of 104.

As for `COC(=O)C(Cc1ccc(OCCn2c(=O)sc3cc(C(=O)c4ccccc4)ccc32)cc1)C(=O)OC`, the nuclei count worked out at 102.

With `COc1cccc2cc(-c3nc([C@H]4CC[C@H](C(=O)O)CC4)n4ncnc(N)c34)[nH]c12`, the nuclei count stood at 80.4.

Regarding `O=C(O)Cc1cccc(OCCCN(Cc2cccc(C(F)(F)F)c2Cl)CC(c2ccccc2)c2ccccc2)c1` [GW 3965 hydrochloride], the nuclei count was determined as 101.

`CC(=O)O[C@H]1C[C@@]2(C)[C@@H](C[C@@H](O)[C@H]3[C@@]4(C)CC[C@@H](O)[C@@H](C)[C@@H]4CC[C@@]32C)/C1=C(\CCC=C(C)C)C(=O)O` [Fusidic acid sodium salt] registered a nuclei count of 97.6.

`C[C@]1(c2nc3c(C(N)=O)cccc3[nH]2)CCCN1` [ABT-888 (Veliparib)] displayed a nuclei count of 100.

The compound `N[C@@H](Cc1cc(I)c(Oc2ccc(O)cc2)c(I)c1)C(=O)O` [3,5-Diiodo-L-thyronine] returned a nuclei count of 89.8.

`CC(=O)N[C@@H](CS)C(=O)O` [Acetylcysteine] had a nuclei count of 102.

`CC(=O)N[C@@H](CS)C(=O)O` [N-Acetyl-Cysteine] gave a nuclei count of 103.

`COc1cc(C2Oc3cc([C@H]4Oc5cc(O)cc(O)c5C(=O)[C@@H]4O)ccc3OC2CO)ccc1O` (stereo partly drawn) [Silibinin (Silybin)] showed a nuclei count of 115.

Compound `O=c1[nH]c2cc(C(F)(F)F)ccc2n1-c1cc(C(F)(F)F)ccc1O` showed a nuclei count of 99.4.

Take `CN(C)CCn1nnnc1SCC1=C(C(=O)O)N2C(=O)[C@@H](NC(=O)Cc3csc(N)n3)[C@H]2SC1` [Cefotiam hydrochloride]: the nuclei count was determined as 86.2.

`O=c1cc(-c2ccccc2)oc2cc(O)c(O)c(O)c12` [Baicalein] displayed a nuclei count of 90.1 ± 7.5.

With `O=C(O)CCC/C=C\CC1C(O)CC(O)C1/C=C/C(O)COc1cccc(Cl)c1` (racemic) [(±)-Cloprostenol sodium salt], the nuclei count came out at 102.

Take `CCNC(=O)CCC/C=C\C[C@@H]1[C@@H](/C=C/[C@@H](O)CCc2ccccc2)[C@H](O)C[C@@H]1O` [Bimatoprost]: the nuclei count stood at 91.

`COc1ccc(S(=O)(=O)Nc2cccnc2Nc2ccc(O)cc2)cc1` yielded a nuclei count of 23.

As to `C[C@]12C[C@H](O)[C@H]3[C@@H](CCC4=CC(=O)CC[C@@]43C)[C@@H]1CC[C@@H]2C(=O)CO` [Corticosterone], the nuclei count worked out at 107.

As to `O=C1NCCc2[nH]c(-c3ccncc3)cc21`, the nuclei count turned out to be 48.5 ± 0.87.

`Cc1ccc(NC(=O)c2cccc(N(C)C)c2)cc1NC(=O)c1ccc(O)cc1` returned a nuclei count of 94.1 ± 10.

`O=C(/C=C/c1ccc(O)c(O)c1)c1ccc(O)cc1O` [Butein] showed a nuclei count of 92.1 ± 4.8.

`CC[C@H]1OC(=O)C[C@@H](O)[C@H](C)[C@@H](O[C@@H]2O[C@H](C)[C@@H](O[C@H]3C[C@@](C)(O)[C@@H](O)[C@H](C)O3)[C@H](N(C)C)[C@H]2O)[C@@H](CC=O)C[C@@H](C)C(=O)/C=C/C(C)=C/[C@@H]1CO[C@@H]1O[C@H](C)[C@@H](O)[C@@H](OC)[C@H]1OC` [Tylosin tartrate]: the nuclei count came to 109.

On to `CC[C@H]1OC(=O)C[C@@H](O)[C@H](C)[C@@H](O[C@@H]2O[C@H](C)[C@@H](O[C@H]3C[C@@](C)(O)[C@@H](O)[C@H](C)O3)[C@H](N(C)C)[C@H]2O)[C@@H](CC=O)C[C@@H](C)C(=O)/C=C/C(C)=C/[C@@H]1CO[C@@H]1O[C@H](C)[C@@H](O)[C@@H](OC)[C@H]1OC` [Tylosin], for which the nuclei count was found to be 99.1.

On to `COC(=O)C1=C(C)NC(C)=C([N+](=O)[O-])C1c1ccccc1C(F)(F)F` (racemic), for which the nuclei count worked out at 111.

As to `O=C(CCCCCCC(=O)Nc1ccccc1)NO` [Vorinostat], the nuclei count was 32.7.

Consider `CCc1ccc2c(-c3cccc(Cl)c3)nc(=O)n(CC)c2n1`, for which the nuclei count is 101.

The compound `NCCCCCNCC12CC3CC(CC(C3)C1)C2` [IEM 1754 dihydrobroMide] yielded a nuclei count of 103.

Consider `CC1(C)O[C@@H]2C[C@H]3[C@@H]4CCC5=CC(=O)C=C[C@]5(C)[C@H]4[C@@H](O)C[C@]3(C)[C@]2(C(=O)CO)O1` [Desonide], for which the nuclei count was 91.4.

Regarding `C/C(=C(\CCOP(=O)(O)O)SC(=O)c1ccccc1)N(C=O)Cc1cnc(C)nc1N` [Benfotiamine], the nuclei count was 107.

For `COc1cc2/c(=N/c3ccc(Br)cc3F)nc[nH]c2cc1OCC1CCN(C)CC1` [Vandetanib (Zactima)], the nuclei count was 44.7.

The compound `CCN(CC)C(=S)SSC(=S)N(CC)CC` [Disulfiram] gave a nuclei count of 92.1 ± 4.2.

For the compound `Cc1cc(OCCCS(C)(=O)=O)cc(C)c1-c1cccc(COc2ccc3c(c2)OC[C@H]3CC(=O)O)c1`, the nuclei count is 98.2.

For `C=C[C@@]1(C)CC(=O)[C@]2(O)[C@@]3(C)[C@@H](O)CCC(C)(C)[C@@H]3[C@H](O)[C@H](OC(C)=O)[C@@]2(C)O1` [Forskolin], the nuclei count was 94.9 ± 7.2.

Regarding `O=C(CCCCCN1C(=O)c2cccc3cccc(c23)C1=O)NO` [Scriptaid], the nuclei count came out at 33.6 ± 1.2.

In the case of `O=c1cc(-c2ccccc2)oc2cc(O)cc(O)c12` [Chrysin], the nuclei count was 92.9.

The compound `Nc1c2c(nc3ccccc13)CCCC2` [Tacrine hydrochloride] gave a nuclei count of 91.6 ± 1.2.

For the compound `O=c1sn(-c2cccc3ccccc23)c(=O)n1Cc1ccccc1` [Tideglusib], the nuclei count is 98.3.

In the case of `Cc1ccccc1OCC(O)CO` (stereo not drawn) [Mephenesin], the nuclei count came to 104.

`CS(=O)(=O)c1ccc(-c2cc(Br)sc2-c2ccc(F)cc2)cc1`: the nuclei count was found to be 99.5.

Turning to `O=C1CN(/N=C/c2ccc([N+](=O)[O-])o2)C(=O)N1` [Nitrofurantoin], the nuclei count stood at 102.

Compound `CC(C)N(CCCNC(=O)Nc1ccc(C(C)(C)C)cc1)C[C@H]1O[C@@H](n2cc(Br)c3c(N)ncnc32)[C@H](O)[C@@H]1O` showed a nuclei count of 91.1.

`S=c1ccss1` [1,2-Dithiole-3-thione] registered a nuclei count of 97.6.

In turn, `Cc1nc2sccn2c(=O)c1CCN1CCC(=C(c2ccccc2)c2ccc(F)cc2)CC1` gave a nuclei count of 101.

Turning to `CC(C)=CCC/C(C)=C/CC/C(C)=C/CO` [Farnesol], the nuclei count is 103.

For the compound `CCN(CC)CCOC(=O)C(Cc1cccc2ccccc12)CC1CCCO1` (stereo not drawn) [Nafronyl oxalate], the nuclei count was determined as 101.

As for `CC(C)NCC(O)COc1ccc(COCCOC(C)C)cc1` (racemic) [Bisoprolol fumarate], the nuclei count was found to be 95.5.

Regarding `CC(C)NCC(O)COc1ccc(COCCOC(C)C)cc1` (racemic) [(±)-Bisoprolol hemifumarate], the nuclei count was 102.

In turn, `NC(=O)N1C(=O)/C(=C(\O)c2cccs2)c2cc(Cl)ccc21` [Tenidap] came in with a nuclei count of 85.7.

`COc1ccc(-c2nc(-c3ccc(-c4cccc(Cl)c4)o3)[nH]c2-c2ccc(OC)cc2)cc1` [Neurodazine]: the nuclei count came to 102.

Regarding `CC1(C)S[C@@H]2[C@H](NC(=O)C(C(=O)O)c3ccccc3)C(=O)N2[C@H]1C(=O)O` (stereo partly drawn) [Carbenicillin disodium], the nuclei count amounted to 99.

Values taken from the supplement of paper PMC8183993.
